# Source: PubChem BioAssay (Tox21)
# Where “and” joins values, the source holds several entries; their conditions need not be identical. Equal entries are not always repeated. Inconclusive means that the source gave no clear call. Such entries were picked first, then a sample of the others. For some assays here: A potency beside an inconclusive call is a rough fit, not a confirmed value. Calls of active or inactive are those of the source. Unless noted, the call rests on the fitted dose curve; in most records, active means well fitted curve in the direction sought with a large enough effect in the repeat runs; inconclusive means weak or mixed curves; inactive means no such curve, though single readings can be large; an effect the other way counts as inactive or inconclusive.
# Assays:
# [1] = molecular target: Peroxisome proliferator-activated receptor gamma (Homo sapiens) (UniProt P37231); assay: qHTS assay to identify small molecule agonists of the peroxisome proliferator-activated receptor gamma (PPARg) signaling pathway (AID 743094; active means well fitted activation curve with a large enough effect in the signal ratio in the repeat runs, not every such curve was filed as active; inconclusive means weak or mixed curves, or effect the other way; inactive means no such curve, though single readings can be large or run the other way; the % refers to the signal ratio; further: potency means the concentration at half of the fitted maximal effect); conditions: HEK293H PPARg-UAS-bla, beta-lactamase FRET ratio, 17 h; activation: at 57 µM (top of the series) unless noted
# How it was run: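 Quantitative HTS agonist mode: stable HEK293H line with UAS-beta-lactamase reporter under PPARg control, 17 h compound exposure at 37C, fluorescence after 1 h FRET substrate loading at room temperature.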
# [2] = molecular target: Peroxisome proliferator-activated receptor gamma (Homo sapiens) (UniProt P37231); assay: qHTS assay to identify small molecule antagonists of the peroxisome proliferator-activated receptor gamma (PPARg) signaling pathway (AID 743191; calls by dose curve; further: on the % scale 0 is the no-effect control and ±100 the full control effect; nearly all actives have a fitted effect of over 30% in size); conditions: HEK293H PPARg-UAS-bla, beta-lactamase ratio, antagonist, 17 h; ratio activity, negative = inhibition: at 62.6 µM (top of the series) unless noted
# How it was run: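 Beta-lactamase reporter under UAS control in HEK293H PPARg-bla cells; compound treatment 17 h at 37C. Read-out: fluorescence intensity after 1 h room-temperature incubation with LiveBLAzer B/G FRET substrate.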
# [3] = qHTS assay for small molecule agonists of the antioxidant response element (ARE) signaling pathway (AID 743202; active means well fitted activation curve with a large enough effect in the signal ratio in the repeat runs, not every such curve was filed as active; inconclusive means weak or mixed curves, or effect the other way; inactive means no such curve, though single readings can be large or run the other way; the % refers to the signal ratio; further: on the % scale 0 is the no-effect control and ±100 the full control effect); conditions: HepG2 ARE-bla reporter, beta-lactamase FRET, 16 h; activation: at 73.3 µM (top of the series) unless noted
# How it was run: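 An ARE-responsive beta-lactamase gene stably integrated in HepG2 cells serves as reporter. After 5 h plating and 16 h compound incubation at 37 C, fluorescence of the B/G FRET substrate was measured.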
# [4] = molecular target: Vitamin D3 receptor (Homo sapiens) (UniProt P11473); assay: qHTS assay to identify small molecule antagonists of the vitamin D receptor (VDR) signaling pathway (AID 743223; active means well fitted inhibition curve with a large enough effect in the signal ratio in the repeat runs, not every such curve was filed as active; inconclusive means weak or mixed curves, or effect the other way; inactive means no such curve, though single readings can be large or run the other way; the % refers to the signal ratio; further: on the % scale 0 is the no-effect control and ±100 the full control effect); conditions: VDR-UAS-bla HEK293T, beta-lactamase FRET ratio, 16 h
# How it was run: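 Antagonist mode: compound added to VDR-bla cells alongside agonist 1alpha,25-dihydroxyvitamin D3 (3 nM final), incubation 16 h at 37C. Read-out is LiveBLAzer FRET fluorescence, 2 h at room temperature.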
# [5] = qHTS assay for small molecule activators of the heat shock response signaling pathway (AID 743210; active means well fitted activation curve with a large enough effect in the signal ratio in the repeat runs, with a control signal flat, not every such curve was filed as active; inconclusive means weak or mixed curves; the % refers to the signal ratio; further: potency means the concentration at half of the fitted maximal effect); conditions: HeLa HSE-bla reporter, beta-lactamase ratio, 5 h; activation: at 62.6 µM (top of the series) unless noted
# How it was run: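 In HSE-bla HeLa cells, 5 h compound incubation (37 C) precedes addition of LiveBLAzer B/G substrate; after 2.5 h at room temperature, fluorescence intensity indicates reporter induction.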
# [6] = molecular target: Peroxisome proliferator-activated receptor delta (Homo sapiens) (UniProt Q03181); assay: qHTS assay to identify small molecule agonists of the peroxisome proliferator-activated receptor delta (PPARd) signaling pathway (AID 743212; calls by dose curve; further: on the % scale 0 is the no-effect control and ±100 the full control effect); conditions: HEK293H PPARd-UAS-bla, beta-lactamase FRET ratio, 17 h; activation: at 62.6 µM (top of the series) unless noted
# How it was run: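 HEK293H UAS-bla reporter cells, human PPARd system; compounds delivered in DMSO after 5 h plating, then at 37 C. Beta-lactamase FRET read, 2 h RT substrate step.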
# [7] = qHTS assay to identify small molecule antagonists of the peroxisome proliferator-activated receptor delta (PPARd) signaling pathway - cell viability counter screen (AID 743213); conditions: PPARd-bla HEK293H viability, CellTiter-Glo luminescence, 17 h; viability change, negative = cytotoxic: at 62 µM (top of the series) unless noted; further: nearly all actives have a fitted effect of over 50% in size; further: potency means the concentration at half of the fitted maximal effect
# How it was run: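 PPARd-bla HEK293H cells were treated with compounds plus agonist L165041 (300 nM final) for 17 h at 37 C. Viability was then read in the same wells by CellTiter-Glo luminescence after 30 min at room temperature.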
# [8] = qHTS assay to identify small molecule agonists of the farnesoid-X-receptor (FXR) signaling pathway - cell viability counter screen (AID 743218); conditions: FXR-bla HEK293T viability, CellTiter-Glo luminescence, 16 h; viability change, negative = cytotoxic: at 62.6 µM (top of the series) unless noted; further: potency means the concentration at half of the fitted maximal effect; nearly all actives have a fitted effect of over 45% in size
# How it was run: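 Cytotoxicity counter-screen run in parallel, same wells: FXR-UAS-bla HEK 293T cells dosed 16 h at 37 C, viability read by CellTiter-Glo luminescence after 30 min at room temperature.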
# [9] = molecular target: Vitamin D3 receptor (Homo sapiens) (UniProt P11473); assay: qHTS assay to identify small molecule agonists of the vitamin D receptor (VDR) signaling pathway (AID 743222; calls by dose curve; further: potency means the concentration at half of the fitted maximal effect); conditions: HEK293T VDR-UAS-bla, beta-lactamase FRET ratio, 16 h; activation: at 63.5 µM (top of the series) unless noted
# How it was run: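 Quantitative HTS agonist-mode screen: compounds in DMSO were pin-transferred onto VDR-bla cells and incubated 16 h at 37C, 5% CO2. Reporter activity was detected with LiveBLAzer B/G FRET substrate after 2 h at room temperature.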
# [10] = qHTS assay to identify small molecule antagonists of the peroxisome proliferator-activated receptor gamma (PPARg) signaling pathway - cell viability counter screen (AID 743194); conditions: PPARg-bla HEK293H viability, CellTiter-Glo luminescence, 17 h, co-treated with 50 nM rosiglitazone; activity change, negative = cytotoxicity: at 62.6 µM (top of the series) unless noted; further: potency means the concentration at half of the fitted maximal effect; nearly all actives have a fitted effect of over 55% in size
# How it was run: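 Viability was measured as CellTiter-Glo luminescence in GeneBLAzer PPARg UAS-bla HEK293H cells. These cells had been exposed 17 h at 37 C to compounds together with rosiglitazone at 50 nM final, with the beta-lactamase readout taken in the same wells.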
# [11] = qHTS assay for small molecule activators of the heat shock response signaling pathway - cell viability counter screen (AID 743209); conditions: HSE-bla HeLa viability, CellTiter-Glo luminescence, 5 h; activity change, negative = cytotoxicity: at 62.6 µM (top of the series) unless noted; further: nearly all actives have a fitted effect of over 50% in size; further: potency means the concentration at half of the fitted maximal effect
# How it was run: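 First, HSE-bla HeLa cells were seeded at 1500 cells/well and kept overnight at 37 C. Next, compounds were pinned in and incubated 5 h. After the FRET substrate step, CellTiter-Glo was added and luminescence read 30 min later.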
# [12] = qHTS assay to identify small molecule agonists of the peroxisome proliferator-activated receptor delta (PPARd) signaling pathway - cell viability counter screen (AID 743211); conditions: PPARd-bla HEK293H viability, CellTiter-Glo luminescence, 17 h; activity change, negative = cytotoxicity: at 62.6 µM (top of the series) unless noted; further: potency means the concentration at half of the fitted maximal effect; nearly all actives have a fitted effect of over 55% in size
# How it was run: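 Viability was measured as CellTiter-Glo luminescence (30 min, room temperature) in the same wells as the beta-lactamase readout. GeneBLAzer PPARd UAS-bla HEK293H cells received compound after 5 h plating and were incubated 17 h at 37 C.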
# [13] = qHTS assay to identify small molecule antagonists of the farnesoid-X-receptor (FXR) signaling pathway - cell viability counter screen (AID 743221; active means well fitted cell-killing curve with a large enough effect in the repeat runs, not every such curve was filed as active; inconclusive means weak or mixed curves, or effect the other way; inactive means no such curve, though single readings can be large or run the other way; further: potency means the concentration at half of the fitted maximal effect; nearly all actives have a fitted effect of over 50% in size); conditions: FXR-bla HEK293T viability, CellTiter-Glo luminescence, 16 h; activity change, negative = cytotoxicity: at 62.6 µM (top of the series) unless noted
# How it was run: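 Cytotoxicity counter screen run in the FXR-bla reporter wells: HEK 293T cells exposed to compound with 50 uM (final) chenodeoxycholic acid for 16 h, 37 C, then viability measured by CellTiter-Glo luminescence after 30 min, room temperature.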
# [14] = molecular target: Bile acid receptor (Homo sapiens) (UniProt Q96RI1); assay: qHTS assay to identify small molecule agonists of the farnesoid-X-receptor (FXR) signaling pathway (AID 743220; active means well fitted activation curve with a large enough effect in the signal ratio in the repeat runs, not every such curve was filed as active; inconclusive means weak or mixed curves, or effect the other way; the % refers to the signal ratio; further: on the % scale 0 is the no-effect control and ±100 the full control effect); conditions: HEK293T FXR-UAS-bla, beta-lactamase FRET ratio, 16 h; activation: at 62.6 µM (top of the series) unless noted
# How it was run: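 Beta-lactamase reporter under UAS control in GeneBLAzer FXR HEK 293T cells (5000/well) measured with LiveBLAzer FRET substrate after 2 h at room temperature. Compound exposure lasted 16 h at 37C.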
# [15] = activity change, negative = inhibition: at 61 µM (top of the series) unless noted
# Tags describe the fitted curve by direction and shape or compound fluorescence and quenching.
# Sequence of UniProt Q03181 (Q03181 whole entry, looked up): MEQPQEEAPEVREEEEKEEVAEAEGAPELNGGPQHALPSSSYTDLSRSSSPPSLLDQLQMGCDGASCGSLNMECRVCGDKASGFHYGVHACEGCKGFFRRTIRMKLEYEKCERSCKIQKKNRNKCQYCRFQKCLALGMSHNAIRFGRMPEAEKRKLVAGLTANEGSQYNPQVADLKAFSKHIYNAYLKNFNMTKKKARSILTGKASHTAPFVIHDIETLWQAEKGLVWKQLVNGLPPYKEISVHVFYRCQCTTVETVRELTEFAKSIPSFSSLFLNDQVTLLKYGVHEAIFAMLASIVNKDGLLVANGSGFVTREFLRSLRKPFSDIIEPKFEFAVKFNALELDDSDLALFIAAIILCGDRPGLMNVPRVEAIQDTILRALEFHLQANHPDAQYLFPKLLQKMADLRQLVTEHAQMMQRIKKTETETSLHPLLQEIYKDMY
# Sequence of UniProt P11473 (P11473 whole entry, looked up): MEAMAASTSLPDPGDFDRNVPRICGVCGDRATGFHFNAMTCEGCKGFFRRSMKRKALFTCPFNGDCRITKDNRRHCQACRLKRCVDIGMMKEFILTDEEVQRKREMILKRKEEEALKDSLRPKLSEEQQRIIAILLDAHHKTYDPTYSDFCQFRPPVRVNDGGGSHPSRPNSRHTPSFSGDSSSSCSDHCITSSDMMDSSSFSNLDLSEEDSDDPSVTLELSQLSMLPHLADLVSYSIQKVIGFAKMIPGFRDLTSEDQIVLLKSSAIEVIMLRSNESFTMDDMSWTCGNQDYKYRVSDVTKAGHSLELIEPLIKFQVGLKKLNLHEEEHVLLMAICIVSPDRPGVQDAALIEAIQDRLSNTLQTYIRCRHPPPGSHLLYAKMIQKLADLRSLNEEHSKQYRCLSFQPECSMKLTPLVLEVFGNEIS
# Sequence of UniProt P37231 (P37231 whole entry, looked up): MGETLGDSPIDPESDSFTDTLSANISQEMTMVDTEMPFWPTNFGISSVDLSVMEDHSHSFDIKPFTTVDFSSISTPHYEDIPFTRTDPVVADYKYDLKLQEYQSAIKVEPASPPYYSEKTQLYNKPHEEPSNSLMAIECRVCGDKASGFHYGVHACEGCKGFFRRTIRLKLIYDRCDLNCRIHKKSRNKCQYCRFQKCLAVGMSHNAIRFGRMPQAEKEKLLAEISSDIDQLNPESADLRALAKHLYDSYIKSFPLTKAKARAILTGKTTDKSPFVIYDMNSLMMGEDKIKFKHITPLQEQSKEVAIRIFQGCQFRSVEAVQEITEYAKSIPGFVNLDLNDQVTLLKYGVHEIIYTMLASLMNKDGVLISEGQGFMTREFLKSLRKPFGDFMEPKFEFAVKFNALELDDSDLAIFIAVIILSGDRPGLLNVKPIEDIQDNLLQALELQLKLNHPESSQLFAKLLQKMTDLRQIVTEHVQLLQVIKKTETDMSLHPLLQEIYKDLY
# Sequence of UniProt Q96RI1 (Q96RI1 whole entry, looked up): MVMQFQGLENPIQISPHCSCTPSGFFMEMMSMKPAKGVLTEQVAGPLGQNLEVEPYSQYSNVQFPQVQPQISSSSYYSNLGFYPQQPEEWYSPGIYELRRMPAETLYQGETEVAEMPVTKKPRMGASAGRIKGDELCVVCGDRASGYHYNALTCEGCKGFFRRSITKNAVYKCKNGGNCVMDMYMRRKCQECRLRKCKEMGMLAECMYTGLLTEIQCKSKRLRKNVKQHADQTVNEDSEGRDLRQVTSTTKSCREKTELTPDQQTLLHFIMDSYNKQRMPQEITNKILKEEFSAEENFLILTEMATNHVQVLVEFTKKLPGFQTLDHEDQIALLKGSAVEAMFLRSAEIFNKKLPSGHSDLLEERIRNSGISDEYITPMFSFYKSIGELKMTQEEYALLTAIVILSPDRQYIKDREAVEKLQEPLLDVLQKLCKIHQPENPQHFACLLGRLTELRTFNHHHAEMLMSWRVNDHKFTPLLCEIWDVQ
compound,measurement,setting,value
O=c1[nH]c2ccc(Cl)cc2o1,activation,[1],inconclusive: 10.2%
same,"ratio activity, negative = inhibition",[2],inconclusive: 22.4%
same,activation,[3],inconclusive: -13.2%
same,"activity change, negative = inhibition",[4]; [15],inconclusive: -2.06%
CCCCCC(CO)CCC (stereo unspecified),Potency,[1],inactive
same,"ratio activity, negative = inhibition",[2],inconclusive: -8.33%
same,Potency,[5],"inconclusive: 43.6 µM [rising, partial curve, poor fit]"
same,activation,[6],inconclusive: 6.03%
same,Potency,[7],"inconclusive: 1.1 µM [cytotoxic, single point]"
CC(C)(O)C#CC(C)(C)O,Potency,[1],inactive
same,"ratio activity, negative = inhibition",[2],inconclusive: 16.6% [at 81.1 µM]
same,Potency,[3],inactive
same,Potency,[8],"inconclusive: 10 nM [rising, full curve, poor fit]"
same,Potency,[9],"inconclusive: 7.92 µM [rising, partial curve]"
same,"activity change, negative = inhibition",[4]; [15],inconclusive: 25.3% [at 78.8 µM]
Nc1ncnc2nc[nH]c12,Potency,[1],inactive
same,"ratio activity, negative = inhibition",[2],inconclusive: -5.92% and inconclusive: 18.9%
same,Potency,[5],inconclusive: 33.5 µM [activator]
same,Potency,[6],inactive
same,Potency,[8],"inconclusive: 692 nM [rising, partial curve, poor fit]"
same,"activity change, negative = inhibition",[4]; [15],inconclusive: -8.86%
same,"activity change, negative = inhibition",[4]; at 61 µM (top of the series),inactive: 3.35%
CC1=C(/C=C/C(C)=C/C=C/C(C)=C/C(=O)O)C(C)(C)CCC1,Potency,[1],"active: 535 nM and inconclusive: 21.9 µM [fluorescent, partial curve, poor fit] and inconclusive: 109 nM [activator, full curve]"
same,Potency,[10],"inconclusive: 55 µM [cytotoxic, single point]"
same,activation,[3],inconclusive: -22.1%
same,Potency,[11],"inconclusive: 55 µM [cytotoxic] and inconclusive: 33.5 µM [cytotoxic, single point]"
same,"activity change, negative = cytotoxicity",[11],inconclusive: -39.8% [cytotoxic]
same,Potency,[5],inconclusive: 55 µM and inconclusive: 61.6 µM and inconclusive: 33.5 µM
same,Potency,[12],"inconclusive: 55 µM [cytotoxic, partial curve, poor fit]"
same,Potency,[7],"inconclusive: 61.6 µM [cytotoxic, single point]"
same,Potency,[8],"inconclusive: 55 µM [cytotoxic, single point] and inconclusive: 5.31 µM [cytotoxic, full curve]"
same,Potency,[13],"inconclusive: 61.6 µM [falling, partial curve, poor fit] and inconclusive: 26.6 µM [falling, partial curve, poor fit]"
same,activation,[9],inconclusive: 4.22%
CC(=O)C1=C(C)[C@@H]2C[C@@]3(C1)[C@H](C)CC[C@H]3C2(C)C,Potency,[1],inactive
same,"ratio activity, negative = inhibition",[2],inconclusive: 2.47% [at 81.1 µM]
same,Potency,[5],"inconclusive: 72.3 µM [falling, partial curve, poor fit]"
same,Potency,[12],"inconclusive: 13.8 µM [rising, partial curve, poor fit]"
same,Potency,[7],inactive
same,Potency,[14],inactive
same,Potency,[13],"inconclusive: 776 nM [falling, full curve, poor fit]"
same,Potency,[4]; [15],inactive
